Measurements reported in PubChem BioAssay AID1458 (National Center for Advancing Translational Sciences (NCATS), 2008).
Several values for one entry are separate records, joined by “and”; a condition that tells them apart may be missing. Identical values can stand only once. Out of some 210,000 compounds screened, about 5,900 (2.8%) were called active. Inconclusive results, whose numbers are uncertain, are shown with a selection of clear calls. The call rests on the fitted dose curve; in most records, active means well fitted activation curve with a large enough effect; inconclusive means small, poorly fitted or top-dose-only effect; inactive means no such curve, though single readings can be large or run the other way. Potencies of inconclusive entries are doubtful fits and often do not repeat.

Test: qHTS Assay for Enhancers of SMN2 Splice Variant Expression; further: nearly all actives have a fitted effect of over 55% in size; on activity change, positive = activation: % of control where 0% means no effect
Conditions: HEK293 SMN2-luciferase splicing reporter, luminescence, 30-36 h; activity change, positive = activation: at 46.1 µM (top of the series)
Method in brief: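 HEK293 cells carry an SMN2 […]–luciferase reporter in which exon 7 inclusion puts luciferase in frame. Cells were plated 10-12 h before compound addition, then incubated 30-36 h at 37C. ONE-Glo luminescence was read; sodium butyrate at 4.5 mM final served as control.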
Potency means the concentration at half of the fitted maximal effect; tags describe the fitted curve by direction and shape.

Structure (SMILES)	Potency	activity change, positive = activation
Cc1cccc(N2CCN(C(=O)c3ccc4c(Cl)c5c(nc4c3)CCCC5)CC2C)c1 (configuration not stated)	inconclusive: 11.2 µM [activator, partial curve, poor fit]	
O=C1CCC(=O)N1OCCCOc1ccc(Br)cc1Cl	inconclusive: 28.2 µM [activator, single point]	
N#CC(C#N)=Cc1ccc(OC(=O)c2ccccn2)cc1	inconclusive: 0.158 µM [activator, full curve, poor fit]	
CC1CCN(C(=O)CSc2nnc(-c3ccccc3)o2)CC1	inactive	
CCOc1ccc(C(=O)c2cn(CC(=O)Nc3ccc4c(c3)OCCO4)c3ccc(F)cc3c2=O)cc1	inactive	
O=C1NC(=S)N/C1=C/c1cc([N+](=O)[O-])ccc1N1CCOCC1	inconclusive: 14.1 µM [activator, single point]	
CNS(=O)(=O)c1cccc(C(=O)Nc2cccc(Cl)c2)c1	inactive	
CSc1ccc(/C=N/NC(=O)c2sccc2C)cc1	active: 2.51 µM	
CC(=O)c1c(C)[nH]c(-c2ccccc2)c1C	inconclusive: 5.62 µM [activator, single point]	
OC(c1ccccc1)c1nc2ccccc2s1 (configuration not stated)	inactive	
CCOC(=O)c1cnn(-c2ccc(Cl)cc2)c1C1CCN(C(=O)OC(C)(C)C)CC1	inconclusive: 0.1 µM [activator, partial curve, poor fit]	
COc1ccc2c(=O)c(Oc3ccc(C(=O)O)cc3)c(C(F)(F)F)oc2c1	active: 2.51 µM	
O=C(/C=C/c1ccccc1)Nc1ccc(CN2CCOCC2)cc1	inactive	
Cc1cccnc1NC(N)=S	inactive	
Cn1cccc1C(=O)OCC(=O)Nc1ccc2c(c1)OCO2	inconclusive: 31.6 µM [activator, single point]	
Cc1cc(=O)oc(C)c1C(=O)NCC1COc2ccccc2O1 (configuration not stated)	inactive	
O=C(Nc1ccc(N2CCOCC2)cc1)c1cn2ccccc2n1	inconclusive: 0.398 µM [activator, full curve, poor fit]	
O=C(CCS(=O)(=O)c1nc(-c2cccs2)cc(C(F)(F)F)n1)Nc1cc(Br)ccc1O	inconclusive: 17.8 µM [activator, single point]	
COC(=O)c1ccc(-c2ccc(Cl)cc2)nc1C	active: 5.01 µM	
CCCn1c2ccccc2c2nnc(SCC(=O)OCC)nc21	inconclusive: 35.5 µM [activator, single point]	
CC(=O)c1ccc(N2CCN(C(=O)CCC(=O)Nc3ccc4nc(N5CCCCC5)cc(C)c4c3)CC2)cc1	inactive	
Cc1cc(C(=O)Nc2ccc(N3CCCC3)c(Cl)c2)ccc1[N+](=O)[O-]	inconclusive: 11.2 µM [activator, partial curve, poor fit]	
COc1cccc(NC(=O)c2ccc(CN3CCOCC3)cc2)c1	inconclusive: 12.6 µM [activator, single point]	
Cc1c(NS(=O)(=O)c2ccc(Cl)c(C(=O)OCC(=O)NCc3ccco3)c2)c(=O)n(-c2ccccc2)n1C	inactive	

Structure (SMILES)	Potency	activity change, positive = activation
NNC(=O)c1ccc(N2CCCCCC2)c([N+](=O)[O-])c1	inactive	
Cc1ccc(S(=O)(=O)N2CCC(=O)N(C(COCc3ccc(Cl)cc3Cl)Cc3ccccc3)CC2)cc1 (configuration not stated)	inconclusive: 0.0282 µM [activator, full curve, poor fit]	
Cc1ccc(NC(=O)/C=C/c2ccc(C)o2)c(C)c1	inactive	
O=C1CC(Sc2ncn[nH]2)C(=O)N1c1ccccc1 (configuration not stated)	inconclusive: 4.47 µM [activator, full curve, poor fit]	
CC(C)OC(=O)c1cccc(NC(=O)c2ccccc2)c1	inconclusive: 14.1 µM [activator, single point]	
COc1ccc(CCNC(=O)c2ccc3c(c2)N(Cc2ccccc2F)C(=O)c2ccccc2S3(=O)=O)cc1OC	inconclusive: 7.08 µM [activator, partial curve, poor fit]	
Cc1nn(-c2ccccc2)c(C)c1/C=N/NC(=O)c1cc(C23CC4CC(CC(C4)C2)C3)[nH]n1	inconclusive: 1.78 µM [activator, single point]	
CC(=N/O)/C(C)=N\NC(=O)c1ccccn1	inconclusive: 35.5 µM [activator, single point]	
Cc1ccc(C(=O)NCc2occc2C(=O)O)o1	inconclusive: 1.78 µM [activator, partial curve]	
CSc1ccccc1NC(=O)CSc1nnnn1-c1ccccc1SC	inconclusive: 0.158 µM [activator, full curve]	
Cn1c(-c2ccc3c(c2)OCO3)cnc1NCc1ccc(Cl)cc1	inconclusive: 0.01 µM [activator, full curve, poor fit]	
C/C(=N/NC(=O)c1ccoc1C)c1ccc(NC(=O)C2CCCC2)cc1	inconclusive: 31.6 µM [activator, single point]	
CC1CCc2nc(/C(C#N)=C/c3ccncc3)sc2C1 (configuration not stated)	active: 17.8 µM	
COc1cc(Cl)c(C)cc1NC(=O)c1ccc2c(Cl)c3c(nc2c1)CCC3	inconclusive: 3.16 µM [activator, single point]	
CN1CCN(S(=O)(=O)c2ccc(NC(=O)C3CCCO3)cc2)CC1 (configuration not stated)	inconclusive: 0.0158 µM [activator, full curve, poor fit]	
COc1ccc(NC(=O)CN2CCC(C)CC2)cc1	inconclusive: 15.8 µM [activator, partial curve, poor fit]	
CC(=O)Nc1ccc(NC(=O)CSc2nc3ccccc3nc2N2CCOCC2)cc1	inactive	
Oc1c(-c2cc(-c3ccco3)[nH]n2)ccc2ccccc12	active: 14.1 µM	
O=C(CN1C(=O)c2ccccc2S1(=O)=O)N1CCN(c2ccccc2)CC1	inconclusive: 4.47 µM [activator, full curve, poor fit]	
Cc1nn(Cc2cccc(C(=O)Nc3ccn(Cc4ccccc4F)n3)c2)c(C)c1[N+](=O)[O-]	inconclusive: 2.51 µM [activator, single point]	
CC1CCCN(CCCOc2ccc([N+](=O)[O-])cc2)C1 (configuration not stated)	inconclusive: 6.31 µM [activator, single point]	
Cc1c(C(=O)Nc2ccc(F)cc2)c2ccccn2c1CCc1ccncc1		inconclusive: 36.6% [activator]
COc1ccc2c(c1-c1c3c(cc(Br)c1OC)CCCC3)CCCC2	inactive	
Cc1ccccc1C(=O)NNC(=O)c1cccc([N+](=O)[O-])c1	inconclusive: 35.5 µM [activator, single point]	

Structure (SMILES)	Potency	activity change, positive = activation
COc1ccccc1C(=O)Nc1nc(-c2ccc(S(=O)(=O)N3CCOCC3)cc2)cs1	inactive	
CCOc1ccc(C2C(C(=O)c3ccco3)=C(O)C(=O)N2Cc2cccnc2)cc1 (configuration not stated)	inconclusive: 0.0891 µM [activator, full curve, poor fit]	
O=c1sc(/C=N/Nc2ccccc2)c(Cl)n1Cc1ccccc1	inconclusive: 0.501 µM [activator, full curve, poor fit]	
Cc1ccccc1C(=O)NC(CC(C)C)C(=O)OCC(=O)c1c(N)n(C)c(=O)n(C)c1=O (configuration not stated)	inactive	
COc1ccc(C(=O)Nc2cc(OC)ccc2OC)cc1	inactive	
Cc1cc(C)cc(OCC(=O)Nc2cccc(C(=O)O)c2)c1	inconclusive: 15.8 µM [activator, single point]	
c1ccc(CSc2nnc(-c3c[nH]c4ccccc34)o2)cc1		inconclusive: 37.5% [activator]
O=c1c2ccccc2nc2ccc(NCc3ccco3)nn12	active: 14.1 µM	
Cc1ccccc1N(C(=O)Cc1cccs1)C(C(=O)NCC1CCCO1)c1cccnc1 (configuration not stated)	inactive	
COc1ccc2nc(NC(=O)CCNC(=O)c3ccccc3Cl)sc2c1	active: 15.8 µM	
Cc1ccc(C(=O)O)cc1Nc1nc2ccccc2n2nnnc12	inconclusive: 11.2 µM [activator, partial curve]	
Cc1c(OCc2ccc([N+](=O)[O-])cc2)ccc2c3c(c(=O)oc12)CCC3	active: 5.62 µM	
CN(Cc1ccccc1)C(=O)c1cccc(NC(=O)c2ccco2)c1	inconclusive: 5.01 µM [activator, partial curve, poor fit]	
CSc1ccc(S(=O)(=O)Nc2c(C)cccc2C)cc1	inconclusive: 0.0032 µM [activator, full curve, poor fit]	
COc1ccc(-c2ccc3c(N)c(C(=O)NCc4ccc(Cl)cc4)sc3n2)cc1	active: 11.2 µM	
O=C(Nc1ccc(F)cc1)c1c(Cl)nc2ccccn12	inconclusive: 17.8 µM [activator, single point]	
Oc1ccccc1-c1cc(-c2cccc(F)c2)n[nH]1	inconclusive: 25.1 µM [activator, single point]	
CN(C)/C=N/c1ncc(C(=O)c2ccc(-c3ccccc3)cc2)s1	inactive	
Nc1nc2ccc(OC(F)(F)F)cc2s1	inconclusive: 28.2 µM [activator, single point] and inconclusive: 22.4 µM [activator, single point]	
COc1ccc(-c2cn3c4c(sc3n2)CCCC4)cc1	active: 1.26 µM	
COc1ccc(C2C(C#N)=C(N)OC3=C2C(=O)CC(C)(C)C3)cc1Cn1cc([N+](=O)[O-])cn1 (configuration not stated)	inactive	
CC(C)(C)n1[nH]c2c3c(ccc2c1=O)C(=O)c1ccccc1C3=O	inconclusive: 0.178 µM [activator, full curve]	
N#Cc1c(NC(=O)c2cnccn2)sc2c1CCCC2	active: 10 µM	
CCc1c(C)sc(NC(=O)C2CC2c2ccccc2)c1C(N)=O (configuration not stated)	inconclusive: 35.5 µM [activator, single point]	
